Among the data in the antibiotic and cytotoxicity screens of Wong et al. (2023) are growth inhibition call values, retold here.

Some of the results follow.

The assay has as its system S. aureus RN4220. In words: growth inhibition call (relative growth <= 0.2). The settings on record: 50 µM.
For `Cc1ccc(S(=O)(=O)N2C[C@@H](O)COC[C@H]3O[C@H](CC(=O)NCc4ccc(F)c(F)c4)CC[C@@H]32)cc1`, the growth inhibition call was “inactive”.

As to `C[C@@H]1CN([C@H](C)CO)C(=O)c2cc(NS(=O)(=O)c3cn(C)cn3)ccc2O[C@@H](C)CCCCO[C@H]1CN(C)S(=O)(=O)c1ccccc1`, the growth inhibition call was “inactive”.

On to `C[C@H]1CN([C@@H](C)CO)C(=O)c2cccc(NC(=O)C3CCOCC3)c2O[C@H]1CN(C)S(=O)(=O)c1ccc(Cl)cc1`, for which the growth inhibition call is “inactive”.

As to `C[C@H](CO)N1C[C@H](C)[C@H](CN(C)C(=O)c2ccncc2)OCCCC[C@H](C)Oc2ccc(NS(=O)(=O)c3cn(C)cn3)cc2C1=O`, the growth inhibition call was “inactive”.

For the compound `COc1ccc2c3c([nH]c2c1)[C@H](CO)N(Cc1ccc(cc1)Cl)C[C@]13CCN(CC1)Cc1ccccc1`, the growth inhibition call was “inactive”.

For the compound `CC(C)CC#Cc1ccc2c(c1)O[C@@H](CN(C)C(=O)c1ccccn1)[C@@H](C)CN([C@H](C)CO)S2(=O)=O`, the growth inhibition call was “inactive”.

In the case of `C[C@@H]1CN([C@@H](C)CO)C(=O)CCCn2nncc2CO[C@@H]1CN(C)S(=O)(=O)c1ccc(-c2ccccc2)cc1`, the growth inhibition call was “inactive”.

Regarding `Cc1noc(C)c1S(=O)(=O)N(C)C[C@H]1Oc2ccc(NC(=O)C3CCCCC3)cc2CC(=O)N([C@@H](C)CO)C[C@@H]1C`, the growth inhibition call is “inactive”.

With `COc1ccc(/C=C/CN2CCC(C(=O)N[C@@H](c3ccc(F)cc3)c3ccc4ccccc4n3)CC2)cc1`, the growth inhibition call is “inactive”.

For `C[C@@H]1CN([C@H](C)CO)C(=O)Cc2cc(NS(=O)(=O)c3cccs3)ccc2O[C@@H]1CN(C)S(=O)(=O)c1cccs1`, the growth inhibition call was “inactive”.

Regarding `COCC#Cc1ccc2c(c1)O[C@@H](CN(C)C(=O)CN(C)C)[C@@H](C)CN([C@H](C)CO)S2(=O)=O`, the growth inhibition call is “inactive”.

Consider `Cn1cncc1C#N`, for which the growth inhibition call was “inactive”.

With `C[C@@H]1CN([C@@H](C)CO)C(=O)c2cc(NC(=O)c3ccncc3)ccc2O[C@@H](C)CCCCO[C@@H]1CN(C)Cc1ccc(C(F)(F)F)cc1`, the growth inhibition call was “inactive”.

`CSc1ccc2cc(CN(C[C@H]3CCCO3)C(=O)c3ccco3)c(N(C)Cc3csc(C)n3)nc2c1`: the growth inhibition call is “inactive”.

For the compound `CCS(=O)(=O)Nc1ccc2c(c1)C(=O)N(C)[C@@H]1CC[C@H](CC(=O)NCc3ccccc3F)O[C@H]1CO2`, the growth inhibition call is “inactive”.

Regarding `COC(=O)[C@@H](Cc1ccc(-n2cc(COc3ccccc3/C=C(C)/C=C/C(=O)NO)nn2)cc1)N1CC(/C=C/C2CC2)=C[C@H]1[C@H](O)Cc1ccccc1`, the growth inhibition call is “inactive”.

In the case of `Cl.NCc1ccc(S(N)(=O)=O)cc1`, the growth inhibition call is “inactive”.

Take `CCCNC(=O)Nc1ccc2c(c1)OC[C@H](C)N(Cc1ccc(-c3ccccn3)cc1)C[C@H](C)[C@H](OC)CN(C)C2=O`: the growth inhibition call was “inactive”.

As for `COc1ccc(NC(=O)N(C)C[C@@H]2OCCCC[C@H](C)Oc3ccc(NC(=O)c4ccncc4)cc3C(=O)N([C@H](C)CO)C[C@H]2C)cc1`, the growth inhibition call is “inactive”.

In the case of `C[C@H]1CCCCO[C@@H](CN(C)C(=O)C2CCCCC2)[C@@H](C)CN([C@@H](C)CO)C(=O)c2cc(NC(=O)CCC(F)(F)F)ccc2O1`, the growth inhibition call is “inactive”.

Regarding `C[C@H](O)C#Cc1ccc2c(c1)O[C@@H](CN(C)C(=O)Cc1ccccn1)[C@H](C)CN([C@@H](C)CO)S2(=O)=O`, the growth inhibition call is “inactive”.

Turning to `C[C@H](CO)N1C[C@H](C)[C@@H](CN(C)S(=O)(=O)c2ccc(F)cc2)OCCCC[C@H](C)Oc2ccc(NS(=O)(=O)c3cn(C)cn3)cc2C1=O`, the growth inhibition call was “inactive”.

Consider `C[C@@H]1CN([C@H](C)CO)C(=O)c2cccc(NS(=O)(=O)c3ccc(Cl)cc3)c2O[C@@H]1CN(C)Cc1ccc(Cl)c(Cl)c1`, for which the growth inhibition call is “inactive”.

Regarding `COc1ccc2c3c(n(c2c1)C)[C@@H](CO)N(C[C@]13CCN(CC1)C(=O)Nc1cccc(c1)F)C(=O)C1CCCCC1`, the growth inhibition call is “inactive”.

Consider `C=CCC[C@@H](Cc1ccc(F)cc1)C(=O)O[C@@H](CNC(=O)[C@@H](CC=C)CC(=O)N(CCO)Cc1ccccc1)c1ccccc1`, for which the growth inhibition call was “inactive”.

As to `O=C(NS(=O)(=O)c1ccccc1)C1CC1`, the growth inhibition call was “inactive”.

On to `C[C@H]1CN([C@@H](C)CO)C(=O)Cc2cc(NS(=O)(=O)c3cn(C)cn3)ccc2O[C@@H]1CN(C)C(=O)NC1CCCCC1`, for which the growth inhibition call is “inactive”.

As for `C[C@H](CO)N1C[C@H](C)[C@H](CN(C)C(=O)C2CCOCC2)Oc2ncc(C#Cc3ccccc3F)cc2C1=O`, the growth inhibition call was “inactive”.

In the case of `COc1ccc(S(=O)(=O)Nc2ccc3c(c2)C(=O)N([C@H](C)CO)C[C@H](C)[C@H](CN(C)C(=O)Nc2ccc4c(c2)OCO4)OCCCC[C@@H](C)O3)cc1`, the growth inhibition call was “inactive”.

As to `CO[C@H](C(=O)N(C)C[C@@H]1OCc2ccccc2-c2c(n(C)c3ccccc23)C(=O)N([C@H](C)CO)C[C@@H]1C)c1ccccc1`, the growth inhibition call is “inactive”.

As for `C[C@H]1CN([C@@H](C)CO)S(=O)(=O)c2ccc(-c3ccc(F)cc3)cc2O[C@H]1CN(C)C(=O)C1CCOCC1`, the growth inhibition call is “inactive”.

For the compound `CN(Cc1ccccn1)C(=O)[C@@]12COC[C@@H]1CN(S(C)(=O)=O)C2`, the growth inhibition call is “inactive”.

On to `C[C@@H]1CCCCO[C@@H](CN(C)C(=O)Nc2ccc(F)cc2)[C@@H](C)CN([C@H](C)CO)C(=O)c2cc(NC(=O)c3ccncc3)ccc2O1`, for which the growth inhibition call is “inactive”.

With `C[C@@H]1CCCCO[C@@H](CN(C)Cc2ccc(C(=O)O)cc2)[C@H](C)CN([C@H](C)CO)C(=O)c2cc(NC(=O)C3CCCCC3)ccc2O1`, the growth inhibition call is “inactive”.

Take `C[C@@H]1CCCCO[C@H](CN(C)Cc2ccc(Cl)c(Cl)c2)[C@H](C)CN([C@@H](C)CO)C(=O)c2cc(NC(=O)Nc3ccc(C(F)(F)F)cc3)ccc2O1`: the growth inhibition call is “inactive”.

Turning to `CCOc1ccc(S(=O)(=O)[O-])c2cccnc12.[Na+]`, the growth inhibition call was “inactive”.

Turning to `Cc1noc(C)c1NC(=O)Nc1ccc2c(c1)C(=O)N([C@@H](C)CO)C[C@@H](C)[C@@H](CN(C)C(=O)Nc1cccc3ccccc13)O2`, the growth inhibition call was “inactive”.

`COc1ccc(NC(=O)Nc2ccc3c(c2)C(=O)N([C@@H](C)CO)C[C@@H](C)[C@@H](CN(C)C(=O)CCC(F)(F)F)OCCCC[C@H](C)O3)cc1`: the growth inhibition call is “inactive”.

As for `CO[C@@H]1CN(C)C(=O)c2cc(NS(C)(=O)=O)ccc2OC[C@H](C)N(C(=O)C2CCOCC2)C[C@@H]1C`, the growth inhibition call is “inactive”.

Consider `C[C@H](CO)N1C[C@H](C)[C@@H](CN(C)C(=O)NC2CCCCC2)Oc2ccc(NC(=O)c3ccncc3)cc2CC1=O`, for which the growth inhibition call was “inactive”.
